# Out of some 280,000 compounds screened, about 100 (0.036%) were called active. This list was built around the results that the source calls inconclusive (neither active nor inactive); the mix of calls is not that of the screen. The call rests on the fitted dose curve; in most records, active means well fitted inhibition curve with a large enough effect in the signal ratio, with a control signal flat (not every such curve was filed as active); inconclusive means small, poorly fitted or top-dose-only effect, or effect the other way, or a change in a side signal; inactive means no such curve, though single readings can be large or run the other way; the % refers to the signal ratio. A potency beside an inconclusive call is a rough fit, not a confirmed value. A note “side channel” means that the fit belongs to a control or component signal, not to the main read-out.
# Biological target: Muscleblind-like protein 1 (Homo sapiens) (UniProt Q9NR56)
# Assay: qHTS Assay for Inhibitors of MBNL1-poly(CUG) RNA binding
# Settings: TR-FRET MBNL1-His/biotin-(CUG)12 binding, 665/545 ratio; series mostly up to 57.5 µM
# From the text: NIH Chemical Genomics Center [NCGC] NIH Molecular Libraries Probe Production Centers Network [MLPCN] MLPCN Grant: R03 MH087421-01 Assay Submitter (PI): Charles Thornton NCGC Assay Overview: Expanded CTG repeats in the 3' untranslated region of the DM protein kinase (DMPK) gene causes type I myotonic dystrophy (DM1). DM1 is a multi-systemic disease with a prevalence of 1/7000. Clinical features include myotonia, progressive muscle weakness and wasting, cardiac arrhythmia, insulin resistance, hypersomnolence, cataracts, and other symptoms. The pathogenic effect of expanded CTG repeats stems from deleterious effects of the mutant transcript. CUGexp mRNA accumulates in nuclear foci and sequesters proteins of the muscleblind family, of which MBNL1 is the most common family member in skeletal muscles. […] This brings the terbium label within close proximity to XL665 to allow time-resolved fluorescence resonance energy transfer (TR-FRET). […]
# NCGC Assay Protocol Summary: This is a TR-FRET binding assay with MBNL1-His and Biotin-(CUG)12 RNA. […] (3) Add 1 ul of terbium labeled anti-His antibody (0.055 ng/ul final concentration) (4) Add 1 ul of streptavidin-XL665 (5 nM final concentration) (5) Incubate 60 min at room temperature (6) Detect the assay plate in a EnVision plate reader (PerkinElmer) with Ex=340 nm, Em1=665 nm and Em2=545 nm. […]
# Potency means the concentration at half of the fitted maximal effect; tags describe the fitted curve by direction and shape or compound fluorescence and quenching.
# Chain of UniProt Q9NR56 (Q9NR56 whole entry, looked up): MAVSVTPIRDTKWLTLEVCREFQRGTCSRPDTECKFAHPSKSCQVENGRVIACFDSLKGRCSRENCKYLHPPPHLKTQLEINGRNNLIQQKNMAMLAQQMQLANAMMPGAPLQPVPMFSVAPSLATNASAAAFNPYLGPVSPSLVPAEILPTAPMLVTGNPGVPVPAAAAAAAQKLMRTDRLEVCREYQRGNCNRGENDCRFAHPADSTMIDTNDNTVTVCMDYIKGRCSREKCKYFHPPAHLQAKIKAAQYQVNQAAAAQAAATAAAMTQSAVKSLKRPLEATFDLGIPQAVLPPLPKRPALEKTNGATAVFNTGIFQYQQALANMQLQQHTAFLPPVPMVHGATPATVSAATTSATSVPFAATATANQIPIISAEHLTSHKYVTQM
row,SMILES,Potency
1,O=C(O)Cn1cc(/C=c2/sc3nc4ccccc4n3c2=O)c2ccccc21,"inconclusive: 28.2 µM [quencher, side channel, partial curve]"
2,O=C(NN1C(=O)/C(=C/c2ccc(O)cc2)SC1=S)c1ccccc1O,"inconclusive: 28.2 µM [quencher, side channel, partial curve]"

# Source: PubChem BioAssay AID2675 (National Center for Advancing Translational Sciences (NCATS), 2010)
